This note sets out measurements from the RNAGym collection of RNA variant scans (doi:10.7554/elife.90254).

Read counts are not given, so values of variants with three or more changes are uncertain.

To fix the notation:
B1: OR4K15 (parent)
chain: GUUAACGGUCAUAGGCCAUGGAAACUAGGAGCACCAUUUCGCUGCCAGUGAAGAAAUGAACAAAGAAAAUCUGGGCCAGGCAGGCAUCAAAAGAAAUAGUCUUGCGCUCAACCAGAAAGUCUGUAAUCAUUUUAAGGGUA

The variants in this data set derive from B1. The experiment in a line: self-cleavage, relative activity (ratio to wild type); higher = more cleavage; in vitro, sequencing; the parent is a self-cleaving ribozyme.
With GUUAACGGUCAUAGGCCAUGGAAACUAGGAGCACCAUUUCGCUGCCAGUGAAGAAAUGAACAAAGAAAAUCUGGGCCAGGCAGGCGUCAAAAGAAUUAGUCUUGCGCCCAACCAGAAAGUCUGUAAUCAUUUUAAGGGUA [A86G A96U U108C], the self-cleavage was determined as 0.02.

As to GUUAACGGUCAUAGGCCAUGGAAACUAGGAGCACCAUUUCGCUGCCAGUGAAGAAAUGAACAAAGAAAAUCUGGGCCAGGCAGGCGUCAAAAGAAAUAGUCUCGCGCUCAACCAGAAAGUCUGUAAUCAUUCUAAGGGUA [A86G U103C U132C], the self-cleavage was 1.04.

Take GUUAACGGUCAUAGGCCAUGGAAACUAGGAGCACCAUUUCGCUGCCAGUGAAGAAAUGAACAAAGAAAAUCUGGGCCAGGCAGGCGUCAAAAGAAAUAGUCCUGCGCUCAACCAGAAAGUCCGUAAUCAUUUUAAGGGUA [A86G U102C U122C]: the self-cleavage stood at 2.07.

Take GUUAACGGUCAUAGGCCAUGGAAACUAGGAGCACCAUUUCGCUGCCAGUGAAGAAAUGAACAAAGAAAAUCUGGGCCAGGCAGGCGUCAAAAGAAAUUGUCUUGCGCUCAACCAGAAAGUCUGUAAUCAUUCUAAGGGUA [A86G A98U U132C]: the self-cleavage is 2.21.

For GUUAACGGUCAUAGGCCAUGGAAACUAGGAGCACCAUUUCGCUGCCAGUGAAGAAAUGAACAAAGAAAAUCUGGGCCAGGCAGGCGUCAAAAGAAAUAGCCUUGCGCUCAACCAGAAAGUCUGUAAUCAUUCUAAGGGUA [A86G U100C U132C], the self-cleavage was found to be 2.47.

For the variant GUUAACGGUCAUAGGCCAUGGAAACUAGGAGCACCAUUUCGCUGCCAGUGAAGAAAUGAACAAAGAAAAUCUGGGCCAGGCAGGCGUCAAAAGAAAUAGACUUGCGCUCAACCAGAAAGUCUGUAAUCAUUUUGAGGGUA [A86G U100A A134G], the self-cleavage came to 0.19.

As for GUUAACGGUCAUAGGCCAUGGAAACUAGGAGCACCAUUUCGCUGCCAGUGAAGAAAUGAACAAAGAAAAUCUGGGCCAGGCAGGCGUCAAAAGAAACAGUCUUGCGCACAACCAGAAAGUCUGUAAUCAUUUUAAGGGUA [A86G U97C U108A], the self-cleavage was 0.02.

Turning to GUUAACGGUCAUAGGCCAUGGAAACUAGGAGCACCAUUUCGCUGCCAGUGAAGAAAUGAACAAAGAAAAUCUGGGCCAGGCAGGCGUCAGAAGAAAUAGCCUUGCGCUCAACCAGAAAGUCUGUAAUCAUUUUAAGGGUA [A86G A90G U100C], the self-cleavage stood at 2.07.

Turning to GUUAACGGUCAUAGGCCAUGGAAACUAGGAGCACCAUUUCGCUGCCAGUGAAGAAAUGAACAAAGAAAAUCUGGGCCAGGCAGGCGUCAAAAGAGAUAGUCUCGCGCUCAACCAGAAAGUCUGUAAUCAUUUUAAGGGUA [A86G A95G U103C], the self-cleavage is 0.45.

Consider GUUAACGGUCAUAGGCCAUGGAAACUAGGAGCACCAUUUCGCUGCCAGUGAAGAAAUGAACAAAGAAAAUCUGGGCCAGGCAGGCGUCAAAAGAGAUAGUCUUGCGCUCAACCAGAAGGUCUGUAAUCAUUUUAAGGGUA [A86G A95G A118G], for which the self-cleavage is 2.22.

As for GUUAACGGUCAUAGGCCAUGGAAACUAGGAGCACCAUUUCGCUGCCAGUGAAGAAAUGAACAAAGAAAAUCUGGGCCAGGCAGGCGUCAAAAGAAAUAGCCAUGCGCUCAACCAGAAAGUCUGUAAUCAUUUUAAGGGUA [A86G U100C U102A], the self-cleavage amounted to 1.56.

Consider GUUAACGGUCAUAGGCCAUGGAAACUAGGAGCACCAUUUCGCUGCCAGUGAAGAAAUGAACAAAGAAAAUCUGGGCCAGGCAGUCAUCAAAUGAAAUAGCCUUGCGCUCAACCAGAAAGUCUGUAAUCAUUUUAAGGGUA [G84U A92U U100C], for which the self-cleavage is 0.27.

Consider GUUAACGGUCAUAGGCCAUGGAAACUAGGAGCACCAUUUCGCUGCCAGUGAAGAAAUGAACAAAGAAAAUCUGGGCCAGGCAGGCGUCAAAAGAAAUAGUCUUGCGCACAACCAGAAAGUCUGCAUUCAUUUUAAGGGUA [A86G U108A U124C A126U], for which the self-cleavage worked out at 0.

As to GUUAACGGUCAUAGGCCAUGGAAACUAGGAGCACCAUUUCGCUGCCAGUGAAGAAAUGAACAAAGAAAAUCUGGGCCAGGCAGGCGUCAAAAGAAAUAGUCUUGCGCUCAACCAGAGAGUCUGUAAUCGUUUUAUGGGUA [A86G A117G A129G A135U], the self-cleavage turned out to be 1.5.

Regarding GUUAACGGUCAUAGGCCAUGGAAACUAGGAGCACCAUUUCGCUGCCAGUGAAGAAAUGAACAAAGAAAAUCUGGGCCAGGCAGGCGUCAAAAGAAAUAGUCUUGCGCUCGACCGGAAAGUUUGUAAUCAUUUUAAGGGUA [A86G A110G A114G C121U], the self-cleavage was found to be 0.07.

For the variant GUUAACGGUCAUAGGCCAUGGAAACUAGGAGCACCAUUUCGCUGCCAGUGAAGAAAUGAACAAAGAAAAUCUGGGCCAGGCAGGCGUCAGAAGAAAUAGUCUUGCGCUCAACCAGAAAGUCUGUAAUCAUUUUAAGGGCA [A86G A90G U139C], the self-cleavage stood at 1.23.

Regarding GUUAACGGUCAUAGGCCAUGGAAACUAGGAGCACCAUUUCGCUGCCAGUGAAGAAAUGAACAAAGAAAAUCUGGGCCAGGCAGGGAUCAGAAGAAAUAGUCUUGCGCUCAACCAGAAAGUCUGUAGUCAUUUUAAGGGUA [C85G A90G A126G], the self-cleavage stood at 0.69.

Take GUUAACGGUCAUAGGCCAUGGAAACUAGGAGCACCAUUUCGCUGCCAGUGAAGAAAUGAACAAAGAAAAUCUGGGCCAGGCAGGCGUCUAAAGAAAUAGUCUUGCGCUCAACCUGCAAGUCUGCAAUCACUUUAAGGGUG [A86G A89U A114U A116C U124C U130C A140G]: the self-cleavage was determined as 0.

In the case of GUUAACGGUCAUAGGCCAUGGAAACUAGGAGCACCAUUUCGCUGCCAGUGAAGAAAUGAACAAAGAAAAUCUGGGCCAGGCAGGUAACAAAAGAGAUAGUCUUGCGCUCAACCAGAAAGUCUGUAAUCAUUUUAAGGGUA [C85U U87A A95G], the self-cleavage amounted to 1.25.

In the case of GUUAACGGUCAUAGGCCAUGGAAACUAGGAGCACCAUUUCGCUGCCAGUGAAGAAAUGAACAAAGAAAAUCUGGGCCAGGCAGGCGUCAAGAGAAAUAGUCUUGCGCUCAACCAGAAAGUCUGUAAUCAUUUUGAGGGUA [A86G A91G A134G], the self-cleavage worked out at 0.05.

Turning to GUUAACGGUCAUAGGCCAUGGAAACUAGGAGCACCAUUUCGCUGCCAGUGAAGAAAUGAACAAAGAAAAUCUGGGCCAGGCAGACAUCAAAAGAAAUAGUCUUGCGCUCAACCAGAAGGUCUGUAAUCGUUUUAAGGGUA [G84A A118G A129G], the self-cleavage came to 0.7.
